The record followed here is paper PMC4336329 (PLoS ONE, 2015).

The whole screen tested about 310,000 compounds, of which about 14,000 (4.5%) showed an effect of 50% or more. The effect is printed as a negative number. The list shows a part of the results.
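Note: peak tail current of the secondary pulse compared with the same well before compound.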

human ether-à-go-go-related gene (hERG) potassium channel, sequence (Q12809 whole entry, looked up): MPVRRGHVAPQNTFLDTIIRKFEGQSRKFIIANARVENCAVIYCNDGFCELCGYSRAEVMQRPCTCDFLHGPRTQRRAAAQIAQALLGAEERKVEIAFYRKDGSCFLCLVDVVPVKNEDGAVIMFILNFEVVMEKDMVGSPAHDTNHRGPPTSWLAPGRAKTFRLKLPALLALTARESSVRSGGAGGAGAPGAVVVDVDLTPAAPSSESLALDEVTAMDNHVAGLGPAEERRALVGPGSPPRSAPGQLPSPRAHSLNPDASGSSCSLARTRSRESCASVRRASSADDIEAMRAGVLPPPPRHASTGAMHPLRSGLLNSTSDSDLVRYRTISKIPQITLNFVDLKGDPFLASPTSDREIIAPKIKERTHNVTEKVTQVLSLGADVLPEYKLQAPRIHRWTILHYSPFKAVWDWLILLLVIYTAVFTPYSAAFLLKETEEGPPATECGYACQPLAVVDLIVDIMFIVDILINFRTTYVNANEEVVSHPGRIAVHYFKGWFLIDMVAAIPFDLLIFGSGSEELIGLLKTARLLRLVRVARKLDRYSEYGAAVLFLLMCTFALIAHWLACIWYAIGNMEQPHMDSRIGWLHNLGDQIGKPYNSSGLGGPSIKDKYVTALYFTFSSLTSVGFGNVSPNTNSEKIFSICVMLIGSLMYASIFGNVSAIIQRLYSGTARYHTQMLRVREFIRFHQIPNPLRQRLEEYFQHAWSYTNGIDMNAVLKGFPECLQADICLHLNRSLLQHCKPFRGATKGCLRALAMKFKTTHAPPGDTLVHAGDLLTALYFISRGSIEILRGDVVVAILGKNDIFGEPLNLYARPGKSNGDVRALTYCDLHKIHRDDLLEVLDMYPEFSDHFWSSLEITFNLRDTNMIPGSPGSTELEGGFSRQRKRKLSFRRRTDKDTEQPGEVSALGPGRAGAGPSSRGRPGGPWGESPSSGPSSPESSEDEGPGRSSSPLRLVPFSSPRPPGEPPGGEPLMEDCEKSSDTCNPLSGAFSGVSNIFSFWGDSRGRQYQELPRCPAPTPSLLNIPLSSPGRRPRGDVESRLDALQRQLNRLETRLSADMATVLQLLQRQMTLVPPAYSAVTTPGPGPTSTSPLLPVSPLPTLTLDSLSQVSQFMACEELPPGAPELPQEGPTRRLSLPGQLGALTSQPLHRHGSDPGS

The assay has as its target human ether-à-go-go-related gene (hERG) potassium channel (human, UniProt Q12809). The assay can be described thus: primary screen, population patch clamp on CHO cells stably expressing hERG.
As to `O=C(CC1NCCc2ccccc21)Nc1cccc(Cl)c1` (centres unmarked), the “hERG current change (%, negative = inhibition) at 10uM” value is given as -16.6%.

In the case of `COc1ccc(CC(=O)Oc2ccccc2C)cc1S(=O)(=O)N1CCOCC1`, the “hERG current change (%, negative = inhibition) at 10uM” value is given as -9.73%.

With `COCCOC(=O)C1=C(C)Nc2nc(C)nn2C1c1ccccc1` (centres unmarked), the “hERG current change (%, negative = inhibition) at 10uM” value was found to be 1.58%. For `Cc1cc2oc(C(=O)NC3CCS(=O)(=O)C3)c(C)c2cc1C` (centres unmarked) the value was 2.69%; for `CNc1nc(-c2ccccc2)cc(C(F)(F)F)c1C#N`, -0.0555%; for `Cc1noc(C)c1COC(=O)CCc1ccc(S(=O)(=O)N2CCCCC2)cc1`, -25.9%.

For `O=C(Nc1ccccc1SCC1CSc2nc3ccccc3c(=O)n21)c1cccc(Cl)c1` (centres unmarked), the “hERG current change (%, negative = inhibition) at 10uM” value is -75.5%. Take `CC(=O)NS(=O)(=O)c1ccc2sc(C)nc2c1`: the “hERG current change (%, negative = inhibition) at 10uM” value is 19.7%. Take `CC(=O)Nc1ccc(Nc2nc(C)cc(C)n2)cc1`: the “hERG current change (%, negative = inhibition) at 10uM” value came to 13.9%.

As to `CCCn1c(SCC(=O)Nc2cc(S(=O)(=O)N3CCCCC3)ccc2C)n[nH]c1=O`, the “hERG current change (%, negative = inhibition) at 10uM” value was -20.5%. In the case of `COc1cccc(Nc2nc(-c3ccccc3)nc3ccccc23)c1` it was 11.2%.

With `O=C1NC(=O)C(Cc2ccccc2)(c2cccnc2)N1` (centres unmarked), the “hERG current change (%, negative = inhibition) at 10uM” value is recorded as 17.7%. In the case of `Cc1cc(Br)ccc1NC(=O)C1CCN(S(=O)(=O)c2cnc[nH]2)CC1` it was 8.88%. In the case of `CSc1nc(N2CCN(Cc3ccc4c(c3)OCO4)CC2)c2ccccc2n1` it was -16.7%.

With `CC(NCC(O)c1ccc([N+](=O)[O-])cc1)C12CC3CC(CC(C3)C1)C2` (centres unmarked), the “hERG current change (%, negative = inhibition) at 10uM” value is reported as -69.4%. For `O=C(Nc1nc2c(s1)CCCC2)c1cc(-c2ccccc2)nc2ccccc12` the value was 1.32%; for `Cc1noc(C(F)(F)F)c1C(=O)NNC(=O)c1cccc(C(F)(F)F)c1`, 7.51%; for `c1coc(CN2CNc3nc4ccccc4n3C2)c1`, 10%. In the case of `S=c1[nH]ccn1CCc1ccccc1` it was 22.7%. Turning to `O=C(COC(=O)CCSc1ccccc1)NCc1ccc(F)cc1`, the “hERG current change (%, negative = inhibition) at 10uM” value came out at 14.3%. For `Cc1onc(-c2ccccc2)c1C(=O)Nc1ccc(Br)cc1Cl` the value was 23.5%; for `COc1ccc(Nc2ncnc3nc[nH]c23)cc1OC`, 14%.

`CCCC(=O)Nc1cc(C(=O)O)ccc1Sc1ccc(C)cc1`: the “hERG current change (%, negative = inhibition) at 10uM” value was determined as 4.5%. For `CCOC(=O)CNc1cccc(C(F)(F)F)c1` the value was 1.17%; for `CC1(C)CC(=O)C(C=Nc2cccnc2/N=C/C2=C(O)CC(C)(C)CC2=O)=C(O)C1`, 14%; for `COc1c(Br)cc(Br)cc1/C=C1/C(=O)N=C(N)N1C`, -6.22%.

Turning to `COc1cccc2sc(NNC(=O)C3COc4ccccc4O3)nc12` (centres unmarked), the “hERG current change (%, negative = inhibition) at 10uM” value is 14.6%. For `Cc1ccc(CNC(=O)CCNC(=O)c2ccc(Br)o2)cc1` the value was -0.891%.

With `Cc1ccc(S(=O)(=O)N2[C@@H](c3ccccc3F)C(C(=O)O)=CC[C@H]2c2ccc(Cl)cc2)cc1`, the “hERG current change (%, negative = inhibition) at 10uM” value was 9.58%.

On to `CC1(C)Cc2ccccc2C(NNC(=O)c2ccc(Br)o2)=N1`, for which the “hERG current change (%, negative = inhibition) at 10uM” value came out at 2.54%. Turning to `Cc1ccc(CNC(=O)CC(C)S(=O)(=O)c2ccc3c(c2)NC(=O)CS3)o1` (centres unmarked), the “hERG current change (%, negative = inhibition) at 10uM” value is listed as -0.00952%. With `CC1CCc2nc(N)c(C#N)c(-c3cccn3C)c2C1` (centres unmarked), the “hERG current change (%, negative = inhibition) at 10uM” value came out at 9.35%. In the case of `COc1cccc(-c2cc(C(=O)Nc3ccccc3)c3ccccc3n2)c1` it was 8.07%; in that of `COc1ccc(CCC(=O)NCc2cn3ccccc3n2)cc1`, -2.46%; in that of `CCC(=O)c1c[nH]c(C(=O)NCC2CCCO2)c1` (centres unmarked), -1.32%. For `Cn1ncc(Cl)c1C(=O)NCc1ccco1` the value was 2.11%. Consider `CC(C)=NNC(=O)CN1C(=O)NC2NC(=O)NC21` (centres unmarked), for which the “hERG current change (%, negative = inhibition) at 10uM” value is 13.2%. As to `N#Cc1c(Nc2ccccc2)c(C=NCCN2CCOCC2)c[nH]c1=O`, the “hERG current change (%, negative = inhibition) at 10uM” value is reported as 14.2%. In the case of `CCn1c(=O)c(C(=O)NNC(=O)c2ccccc2Br)c(O)c2ccccc21` it was 7.21%. For the compound `COc1cccc(Cn2nc3c4cc(F)ccc4n(Cc4ccc(F)cc4)cc-3c2=O)c1`, the “hERG current change (%, negative = inhibition) at 10uM” value was found to be 19.3%. For `O=C(O)/C=C/C(=O)Nc1ccc(-n2nccc2C(F)(F)F)cc1` the value was 15%; for `CCOC(=O)c1ccc(NS(=O)(=O)c2cn(C)cn2)cc1`, 14.7%; for `CCN(CC(=O)Nc1cc(Cl)ccc1C)c1ncnc2sc(C)c(C)c12`, -24.5%. For `CSc1ccc(CN2CCc3c([nH]c4ccccc34)C2)cc1` the value was -52.7%. In the case of `CCCCCCC(=O)NNC(=O)c1c(O)c2ccccc2n(CCC)c1=O` it was 3.41%; in that of `Cc1ccc(S(=O)(=O)N2N=C3CCCCC3C2(O)C(F)(F)F)cc1` (centres unmarked), 4.99%. Consider `COc1ccc(N(CC(=O)NCc2ccc3c(c2)OCO3)C(=O)c2csnn2)cc1`, for which the “hERG current change (%, negative = inhibition) at 10uM” value is given as -13.6%. In the case of `Cc1ccc(S(=O)(=O)Nc2ccccc2CNc2cccc(C)n2)cc1` it was -5.51%; in that of `Cc1ccc2c(c1)C(c1ccncc1)=NNC(c1cccnc1)=N2`, -4.46%; in that of `O=C(Nc1nc(-c2ccccn2)cs1)c1cc(Cl)ccc1[N+](=O)[O-]`, -5.92%.

`O=C(NCc1ccc2c(c1)OCO2)C(=O)NCC1OCCCN1S(=O)(=O)c1ccc(F)cc1` (centres unmarked): the “hERG current change (%, negative = inhibition) at 10uM” value is -11.2%.

Turning to `COC(=O)C(NC(=O)COc1ccccc1)(Nc1nc2c(s1)CCCC2)C(F)(F)F` (centres unmarked), the “hERG current change (%, negative = inhibition) at 10uM” value worked out at 13.1%. In the case of `O=C(COC(=O)CCc1nc2ccccc2c(=O)[nH]1)Nc1ccc(N2CCOCC2)cc1` it was -8.78%; in that of `O=C(C[n+]1ccc(-c2nnc3n2CCC3)cc1)c1ccc(Cl)c(Cl)c1.[Br-]`, -14%.

Take `CC(C)C(=O)Nc1cc(S(=O)(=O)Nc2ccc(Cl)cc2)ccc1Cl`: the “hERG current change (%, negative = inhibition) at 10uM” value is given as -3.35%.

On to `CN(C)Cc1cc(O)c(CN(C)C)cc1O`, for which the “hERG current change (%, negative = inhibition) at 10uM” value is given as 4.42%.

In the case of `CCNC(=O)C1Cc2cc(S(=O)(=O)N3CCCC3)ccc2N1C(C)=O` (centres unmarked), the “hERG current change (%, negative = inhibition) at 10uM” value was 10.5%. In the case of `COc1cc(-c2[nH]ncc2CN(C)Cc2nonc2C)cc(OC)c1OC` it was -7.85%.

For `CC(C)(C)NC(=O)CSc1nnc(NC(=O)CCn2cnc3ccccc3c2=O)s1`, the “hERG current change (%, negative = inhibition) at 10uM” value was 19.6%. For `CCOc1cc(-c2noc(CCCC(=O)NC3CCCCC3)n2)ccc1OC` the value was -6.17%; for `CC(=O)C1=C(O)C(=O)N(Cc2ccccc2)C1c1ccc(Cl)cc1` (centres unmarked), 15%; for `O=C1Nc2ccc3sc4ccccc4c3c2C1=O`, 11.8%. In the case of `CC1Cc2cc(S(=O)(=O)CCC(=O)NC3CCCCC3)ccc2N1C(=O)C1CC1` (centres unmarked) it was 8.62%; in that of `COc1ccccc1OCC(=O)N1CCCC(Nc2ccc(C)c(C)c2)C1` (centres unmarked), -11%. In the case of `CC1(C)Cc2noc(N)c2C(C)(C)N1O.Cl`, the “hERG current change (%, negative = inhibition) at 10uM” value worked out at 8.55%.

In the case of `COc1ccc(N2CCN(C(=O)c3ccc(NS(=O)(=O)c4cccs4)cc3)CC2)cc1`, the “hERG current change (%, negative = inhibition) at 10uM” value is given as -30.7%.

On to `Cc1ccc(C(=O)NC2CCSC2=O)cc1` (centres unmarked), for which the “hERG current change (%, negative = inhibition) at 10uM” value came out at 7.89%. For `O=C1c2cccc3cccc(c23)C(=O)N1CCN1CCN(C(=S)Nc2ccc(F)cc2)CC1` the value was 8.16%; for `CC(=O)c1c(C(C)=O)c(C)n(NC(=O)c2cccnc2)c1C`, 10.6%; for `Cc1cc(S(=O)(=O)N2CCCC2C(=O)N2CCOCC2)c(C)cc1Cl` (centres unmarked), -31.6%.

Take `CCCN1CCN(CCCNC(=O)c2ccc3c(=O)n(CCc4ccccc4)c(=O)[nH]c3c2)CC1`: the “hERG current change (%, negative = inhibition) at 10uM” value is given as 3.7%. As to `CC(C)NC(=O)NC(=O)COC(=O)c1ccccc1O`, the “hERG current change (%, negative = inhibition) at 10uM” value is listed as -9.91%. For `CC1(C)CC(NC(=O)c2ccc(Cl)c(S(=O)(=O)N(Cc3ccccc3)c3ccccc3)c2)CC(C)(C)N1` the value was -62.3%; for `CCOC(=O)c1c(C)noc1CP(=O)(c1ccccc1)c1ccccc1`, -6.61%; for `Cc1cc(C)cc(N(C(=O)CCC(=O)Nc2ccccn2)C(C(=O)NC(C)C)c2ccc(O)cc2)c1` (centres unmarked), 11.9%. For `Cc1ccc(OCCOCCN2CCCCC2)c([N+](=O)[O-])c1.O=C(O)C(=O)O` the value was -37.5%; for `CC(C)(C)NC(=S)N/N=C/c1c(Cl)cccc1Cl`, 9.12%. In the case of `CCOc1ccc(NC(=O)CN(C)C(=O)c2ccc(N3CCCCC3)c([N+](=O)[O-])c2)cc1OCC` it was -57.6%. For `O=S(=O)(c1ccc(C(F)(F)F)cc1)N1CCN(CCc2ccccc2)CC1`, the “hERG current change (%, negative = inhibition) at 10uM” value is given as 5.81%. For `[O-][Cl+3]([O-])([O-])[O-].c1ccc(-c2[nH]c(-c3ccccc3)[n+](CC3CO3)c2-c2ccccc2)cc1` (centres unmarked) the value was -28.5%; for `CN(CC(=O)Nc1ccc(Cl)c(C(F)(F)F)c1)C(=O)CCc1nc2ccccc2c(=O)[nH]1`, -8.34%; for `Clc1ccccc1Nc1c2c(nc3ncnn13)CCC2`, -21.8%. For `CN1CCC(=NNC(=O)CSCc2ccccc2)CC1` the value was -0.628%; for `CCc1ccc(CN(C)C(=O)c2cc(COc3cc(C)c(Cl)c(C)c3)on2)nc1`, 14.7%. `COc1ccc(OC)c(C(=O)c2ccccn2)c1`: the “hERG current change (%, negative = inhibition) at 10uM” value is recorded as -35.1%. In the case of `CC(NC(=O)c1ccnc(C(C)(C)C)c1)c1ccccc1` (centres unmarked) it was 21.6%. For `CCCCN(CC)C(=O)c1ccccc1Oc1ccccc1` the value was -10.8%; for `COC(=O)c1cncc(O)c1`, 3.95%.

Consider `O=S(=O)(c1ccc(Br)s1)N1CCN(c2ccnc3cc(Cl)ccc23)CC1`, for which the “hERG current change (%, negative = inhibition) at 10uM” value is recorded as -14.8%.
